Read counts are not given, so values of variants with three or more changes are uncertain.
B1: CPEB3 Ribozyme (parent)
chain: UAACAGGGGGCCACAGCAGAAGCGUUCACGUCGCAGCCCCUGUCAGAUUCUGGUGAAUCUGCGAAUUCUGCUGUAUAUCUC

Variants of: B1
Assay: self-cleavage, relative activity (ratio to wild type); higher = more cleavage; in vitro, sequencing
Procedure, shortened: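 For each CPEB3 ribozyme variant, relative activity is its cleaved/total read fraction divided by the unmutated ribozyme's. Barcoded error-prone PCR libraries were transcribed by T7 RNA polymerase (5 hours, 37°C) and held in DNase I for 15 min before an EDTA stop, with cleavage occurring throughout. Template-switching reverse transcription and Illumina sequencing were used to read the RNAs. A 5-read minimum applied, and results are the mean of three batches.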
Variant A13U A45G U48A G52C has a self-cleavage of 0.19. A13U A45G U49C gave a self-cleavage of 0.2. With A13U A45G U49C U66C U67C G73A the self-cleavage was 0.07. A13U A45G U51A U58C showed a self-cleavage of 0.2. A13U A45G U54C showed a self-cleavage of 0.99. Variant A13U A45G U54C C71A has a self-cleavage of 0.2. Work on A13U A45G U58A U66G yielded a self-cleavage of 0.28. Variant A13U A45G U60C A64G has a self-cleavage of 1.13. Work on A13U A45U A47G G70A A77G yielded a self-cleavage of 0.17. A13U A45U A56U U74C U76C showed a self-cleavage of 0.22. For A13U A45U G70A, the self-cleavage was 0.37. A13U A47G A56G U66C gave a self-cleavage of 0.15. With A13U A47G U51A the self-cleavage was 1.02. For A13U A47G U54A U58C, the self-cleavage was 1.25. A13U A47G U54C U80C gave a self-cleavage of 0.65. A13U A47G U74A gave a self-cleavage of 1.28. A13U A47U U51C A57G U60A C79A gave a self-cleavage of 0.29. A13U A47U U69A U74C C81A showed a self-cleavage of 0.57. With A13U A56G A77U U78A the self-cleavage was 0.91. A13U A56G U60C U78A showed a self-cleavage of 0.62. For A13U A56G U76C, the self-cleavage was 1.04. Work on A13U A57G A77G yielded a self-cleavage of 1.17. A13U A57G U78C showed a self-cleavage of 1.24. For A13U A57G U80C, the self-cleavage was 1.09. Work on A13U A57U U67C U78C yielded a self-cleavage of 0.23. With A13U A64G U67A the self-cleavage was 0.48. With A13U A64G U69A G70C U80G the self-cleavage was 0.11. In the case of A13U C14U A45G U66C, the self-cleavage is reported as 0.26. Work on A13U C14U U48C A64G yielded a self-cleavage of 0.41. Variant A13U C17A A18G U26A U48C G70A G73A has a self-cleavage of 0.04. In the case of A13U C17A A64G, the self-cleavage is reported as 0.33. Variant A13U C17G A18U U25A U72A has a self-cleavage of 0.22. In the case of A13U C17U A18G A20G U31C A64G, the self-cleavage is reported as 0.08. Variant A13U C17U U76C has a self-cleavage of 0.69. For A13U C23U A56U U58C, the self-cleavage was 0.08. For A13U C23U U26C A35U C37U A56G U58C, the self-cleavage was 0.06. In the case of A13U C27A A65G U74G U78A, the self-cleavage is reported as 0.03. A13U C29U U31C A47G U66C showed a self-cleavage of 0.06. Work on A13U C34G A77C yielded a self-cleavage of 0.08. For A13U C37A A57G, the self-cleavage was 0.17. Work on A13U C38U A65G yielded a self-cleavage of 0.2. With A13U C38U U54C U76C A77G the self-cleavage was 0.77. Variant A13U C39A A47U A65G has a self-cleavage of 0.16. With A13U C39G U49G A64G the self-cleavage was 0.13. A13U C39U U43A A57U U58C showed a self-cleavage of 0.14. For A13U C40U G42A U80C, the self-cleavage was 0.1. Work on A13U C40U U76A yielded a self-cleavage of 1.14. A13U C44G U51C gave a self-cleavage of 0.58. With A13U C44U A45C A47G U51C U69G the self-cleavage was 0.11. A13U C50U G52A A64G gave a self-cleavage of 1.19. A13U C62U U67C showed a self-cleavage of 0.26. A13U C68A U78A showed a self-cleavage of 0.62. Variant A13U G16A U43A C68A has a self-cleavage of 0.18. Variant A13U G16A U43C U80C has a self-cleavage of 0.15. A13U G16C U48A U51C showed a self-cleavage of 0.06. A13U G16U C32U U67C U69A showed a self-cleavage of 0.09. With A13U G16U U54A G63A the self-cleavage was 0.16. Work on A13U G19A A45C yielded a self-cleavage of 0.27. For A13U G19A U67A, the self-cleavage was 0.3. Work on A13U G19U A45U A77G yielded a self-cleavage of 0.28. Variant A13U G19U U41C G73A U74C has a self-cleavage of 0.52. In the case of A13U G22A U25C C34U, the self-cleavage is reported as 0.31. In the case of A13U G22A U72A, the self-cleavage is reported as 0.11. For A13U G24A C29U C38G A77G U80A, the self-cleavage was 0.04. A13U G24A U31C U41C gave a self-cleavage of 0.12. A13U G24A U41C U43C A45U U51G A64G showed a self-cleavage of 0.16. In the case of A13U G24C U48C A65G, the self-cleavage is reported as 0.05. In the case of A13U G30A A75G, the self-cleavage is reported as 0.07. For A13U G30A G33U U60A, the self-cleavage was 0.06. For A13U G33A U41A U60C U76C, the self-cleavage was 0.08. A13U G33U A45G A56U showed a self-cleavage of 0.36. A13U G33U C39U U54A A57G showed a self-cleavage of 0.07. Variant A13U G36C U54C A64G has a self-cleavage of 0.11. A13U G42A U66C U76A U80C showed a self-cleavage of 0.09. A13U G46C U80A showed a self-cleavage of 0.31. Work on A13U G55A U69A U78G yielded a self-cleavage of 0.18. A13U G55U U80C gave a self-cleavage of 1.27. With A13U G70A U76C the self-cleavage was 0.95. A13U U25A C34U U43C gave a self-cleavage of 0.1. For A13U U25A C37A C39U G61C, the self-cleavage was 0.07. For A13U U25C A28G A57G U60C U66C U78C, the self-cleavage was 0.03. Work on A13U U25C A35G yielded a self-cleavage of 0.43. In the case of A13U U25C C27G A65C A75G, the self-cleavage is reported as 0.08. A13U U25C C32A U49C G73A gave a self-cleavage of 0.08. For A13U U25C C32U C40G U43C U74C U76C, the self-cleavage was 0.04. For A13U U25C G33A A56U, the self-cleavage was 0.1. Variant A13U U25C U41A has a self-cleavage of 0.11. In the case of A13U U25C U41C U43A U72A U80A, the self-cleavage is reported as 0.07. A13U U25C U49C U66C U69C gave a self-cleavage of 0.18. With A13U U25C U66C the self-cleavage was 0.04. With A13U U26A A35G U41A A77U the self-cleavage was 0.33. Work on A13U U26A A45G A56G yielded a self-cleavage of 0.57. Variant A13U U26A A64G U72C U74A has a self-cleavage of 0.63. In the case of A13U U26A U31A U49C A57G U60C, the self-cleavage is reported as 0.08. Variant A13U U26A U31C C38G U41G A57G U78C has a self-cleavage of 0.03. A13U U26C A35G U58C showed a self-cleavage of 0.67. In the case of A13U U26C A57G U72C A77G, the self-cleavage is reported as 0.23. In the case of A13U U26C C38G U49A U72C, the self-cleavage is reported as 0.06. A13U U26C G33C A75G showed a self-cleavage of 0.12. Variant A13U U26C G53U has a self-cleavage of 0.68. With A13U U26C U31A the self-cleavage was 0.18. Work on A13U U26C U49C A64U U69C A75U U80C yielded a self-cleavage of 0.09. With A13U U31A C38U G61A U72C U74A C79A the self-cleavage was 0.23. A13U U31A G73C U74C A75G gave a self-cleavage of 0.92. In the case of A13U U31A U60C U74A, the self-cleavage is reported as 0.23. In the case of A13U U31A U67C U69A, the self-cleavage is reported as 0.09. Variant A13U U31C A75G has a self-cleavage of 1. For A13U U31C C40U U60A G63U, the self-cleavage was 0.16. With A13U U31C U41C U78A the self-cleavage was 0.75. A13U U31C U43A U54A U67C U74C showed a self-cleavage of 0.16. With A13U U31C U48G A64U U69C the self-cleavage was 0.33. Work on A13U U31C U58A U69C yielded a self-cleavage of 0.2. With A13U U31C U72C the self-cleavage was 0.75. With A13U U41A U60C the self-cleavage was 0.08. Work on A13U U41C G46U yielded a self-cleavage of 0.19. For A13U U41C U80C, the self-cleavage was 1.22. Work on A13U U41G U43A yielded a self-cleavage of 0.13. A13U U43C A45G U48C A56G showed a self-cleavage of 0.48. Work on A13U U43C A45U U60C yielded a self-cleavage of 0.21. Variant A13U U43C A56U U58C has a self-cleavage of 0.03. In the case of A13U U43C U48A, the self-cleavage is reported as 0.1. A13U U43C U49C A56G U80C showed a self-cleavage of 0.89. A13U U43C U67C gave a self-cleavage of 0.17. In the case of A13U U43C U72C, the self-cleavage is reported as 0.72. A13U U43G U51C U58A showed a self-cleavage of 0.11. For A13U U48A G63A U72A U74A, the self-cleavage was 0.06. With A13U U48A U51A U58G the self-cleavage was 0.15. For A13U U48C A64G, the self-cleavage was 0.15. Variant A13U U49A C79U has a self-cleavage of 1.2. For A13U U49C A56U U72A, the self-cleavage was 0.25. With A13U U49C A57G A64G U66C A77U the self-cleavage was 0.09. In the case of A13U U49C U66C, the self-cleavage is reported as 0.49. Variant A13U U51A A56G A64G U69G has a self-cleavage of 0.27. Work on A13U U51A U58A yielded a self-cleavage of 0.4. A13U U51C U69A U80C showed a self-cleavage of 0.5. For A13U U54C A64U U67A U80A, the self-cleavage was 0.2. A13U U54C C62A U66C U72A gave a self-cleavage of 0.23. A13U U54C U69C showed a self-cleavage of 0.46. Variant A13U U54G C68U U80C has a self-cleavage of 0.62. Variant A13U U60A U66C has a self-cleavage of 0.21. For A13U U67A A77G, the self-cleavage was 0.89. Variant A13U U69C U72A has a self-cleavage of 0.3. With A13U U69C U72C U80C the self-cleavage was 0.5. Work on A13U U69G C79U yielded a self-cleavage of 0.35. For A13U U72C U76G, the self-cleavage was 0.96. With C14A A15G A47U U60C the self-cleavage was 0.16. C14A A15G U41A gave a self-cleavage of 0.18. C14A A15G U60C gave a self-cleavage of 0.32. C14A A15U U31A U41C gave a self-cleavage of 0.44. C14A A18G A20G U60C showed a self-cleavage of 0.23. With C14A A18G A56G the self-cleavage was 0.58. With C14A A18G U31C U43A the self-cleavage was 0.19. In the case of C14A A18G U48A U60C, the self-cleavage is reported as 0.07. With C14A A18U A28G G42U A56G U58A C62G the self-cleavage was 0.03. Variant C14A A18U A56U U66C has a self-cleavage of 0.08. C14A A28G A45G U51C showed a self-cleavage of 0.33. With C14A A35U U72C U80C the self-cleavage was 1. C14A A45G U51A A56G gave a self-cleavage of 0.27. Variant C14A A57G A65G has a self-cleavage of 0.55. Work on C14A C17G A56G G70U U80A yielded a self-cleavage of 1.25. C14A C23U A64U C79A showed a self-cleavage of 0.02. With C14A U41C U51A A56U U67A the self-cleavage was 0.66. Variant C14A U54C G63A C68A U72C has a self-cleavage of 0.23. For C14G A15C C79U, the self-cleavage was 0.37. C14G A15G A28U showed a self-cleavage of 0.33. For C14G A20C U26A A65G U80C, the self-cleavage was 0.14. C14G A21U U43G U72C gave a self-cleavage of 0.18.

Source: the RNAGym collection of RNA variant scans (doi:10.1093/nar/gkz1192)
